Hit rate of the full screen: of about 350,000 compounds, about 31,000 (8.9%) were called active. This list was built around the results that the source calls inconclusive (neither active nor inactive); the mix of calls is not that of the screen. The call rests on the fitted dose curve; in most records, active means well fitted inhibition curve with a large enough effect; inconclusive means small, poorly fitted or top-dose-only effect; inactive means no such curve, though single readings can be large or run the other way. Potencies beside an inconclusive call are fits to weak or partial responses and may not hold up.
target: Histone-lysine N-methyltransferase EHMT2 (Homo sapiens) (UniProt Q96KQ7); experiment: qHTS Assay for Inhibitors of Histone Lysine Methyltransferase G9a; settings: G9a H3K9 monomethylation, AlphaScreen, 2 h; activity, negative = inhibition: at 59 µM (top of the series) unless noted; further: nearly all actives have a fitted effect of over 75% in size
Method in brief: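 Signal arises when biotinylated H3K9 peptide, once monomethylated, bridges streptavidin donor and antibody-captured acceptor beads. Enzyme at 20 nM was preincubated 15 min with test compounds; peptide 500 nM and SAM 20 uM then reacted for 2 h.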
On the % scale 0 is the no-effect control and ±100 the full control effect; potency means the concentration at half of the fitted maximal effect; tags describe the fitted curve by direction and shape.

UniProt Q96KQ7, sequence (Q96KQ7 whole entry, looked up): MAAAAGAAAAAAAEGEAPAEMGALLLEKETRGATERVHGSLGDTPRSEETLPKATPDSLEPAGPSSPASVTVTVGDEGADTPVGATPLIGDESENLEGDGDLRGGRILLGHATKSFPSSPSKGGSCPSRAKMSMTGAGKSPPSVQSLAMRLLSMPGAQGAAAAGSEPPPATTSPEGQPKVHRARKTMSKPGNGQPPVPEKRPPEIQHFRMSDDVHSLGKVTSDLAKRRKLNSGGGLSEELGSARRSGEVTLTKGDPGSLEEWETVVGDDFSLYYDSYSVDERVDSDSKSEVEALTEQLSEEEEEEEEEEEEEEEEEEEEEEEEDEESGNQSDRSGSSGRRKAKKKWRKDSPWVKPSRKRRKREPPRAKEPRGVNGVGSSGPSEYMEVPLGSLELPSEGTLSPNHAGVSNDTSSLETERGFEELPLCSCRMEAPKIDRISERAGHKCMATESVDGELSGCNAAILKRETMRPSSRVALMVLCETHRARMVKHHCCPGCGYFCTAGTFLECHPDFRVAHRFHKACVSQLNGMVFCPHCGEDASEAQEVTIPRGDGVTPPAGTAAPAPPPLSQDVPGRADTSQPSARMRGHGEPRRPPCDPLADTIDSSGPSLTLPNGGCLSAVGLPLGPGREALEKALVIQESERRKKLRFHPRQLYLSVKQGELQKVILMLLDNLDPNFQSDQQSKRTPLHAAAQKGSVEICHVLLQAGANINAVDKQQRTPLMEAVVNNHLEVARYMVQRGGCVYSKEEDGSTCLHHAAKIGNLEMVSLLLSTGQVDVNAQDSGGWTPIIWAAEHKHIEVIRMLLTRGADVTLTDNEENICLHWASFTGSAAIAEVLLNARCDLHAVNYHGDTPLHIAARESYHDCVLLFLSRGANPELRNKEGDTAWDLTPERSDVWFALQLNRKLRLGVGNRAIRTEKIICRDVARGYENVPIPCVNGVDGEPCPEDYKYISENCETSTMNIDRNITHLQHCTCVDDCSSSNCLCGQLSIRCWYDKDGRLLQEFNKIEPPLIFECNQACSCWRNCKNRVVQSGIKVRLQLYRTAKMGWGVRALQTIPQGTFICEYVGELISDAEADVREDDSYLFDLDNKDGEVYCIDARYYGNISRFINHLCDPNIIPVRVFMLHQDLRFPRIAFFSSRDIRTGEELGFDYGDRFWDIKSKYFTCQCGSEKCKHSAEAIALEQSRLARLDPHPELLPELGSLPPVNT

Row | SMILES | activity, negative = inhibition | Potency
1 | CC(=O)Nc1cccc(NC(=O)c2cc(-c3cccnc3)nc3ccc(Br)cc23)c1 | inactive: -9.87% [at 0.501 µM] | 
2 | Oc1cccc(CN2CCCCC2)c1 | inactive: 13.6% | 
3 | CCc1ccc(C2NC(C(=O)O)CS2)cc1 (stereo not drawn) |  | active: 3.55 µM
4 | CCOC(=O)N1CCC(N2CCN(S(=O)(=O)c3ccc(C)cc3)CC2)CC1 |  | inconclusive: 6.31 µM [inhibitor, single point]
5 | COc1ccc(NC(=O)CN(C)C(=O)c2cccc(S(=O)(=O)N3CC4(C)CC3CC(C)(C)C4)c2)cc1 (stereo not drawn) |  | inconclusive: 79.4 µM [inhibitor, single point]
6 | CN(C)S(=O)(=O)c1ccc2nc(NC(=O)c3cccnc3)sc2c1 |  | inconclusive: 25.1 µM [inhibitor, single point]
7 | O=C(Nc1ccc(F)cc1)C(Cc1ccccc1)n1cccc1 (stereo not drawn) |  | inconclusive: 56.2 µM [inhibitor, partial curve]
8 | COc1ccc(N2CCN(c3cc(C)nc4nc(-c5ccc(C)cc5)nn34)CC2)cc1 |  | inconclusive: 3.98 µM [inhibitor, single point]
9 | Cn1c(=O)c2c(nc(SCC(=O)NCc3ccc4c(c3)OCO4)n2Cc2ccc(Cl)cc2)n(C)c1=O |  | inconclusive: 28.2 µM [inhibitor, single point]
10 | CCc1nc2cc(CC(=O)O)ccc2o1 |  | inconclusive: 28.2 µM [inhibitor, single point]
11 | Cc1ccc(C2C=C(c3ccc4c(c3)OCO4)Nc3ncnn32)cc1 (stereo not drawn) |  | inconclusive: 35.5 µM [inhibitor, single point]
12 | O=C(Nc1ccccn1)c1sc2cc([N+](=O)[O-])ccc2c1Cl |  | active: 1.58 µM
13 | COc1cc2c3c(c1)/C(=C1/SC(=S)NC1=O)C(=O)N3C(C)(C)C=C2C |  | inconclusive: 3.55 µM [inhibitor, single point]
14 | CCn1c(=O)c(C(=O)CN2CCc3ccccc32)c(N)n(Cc2ccccc2)c1=O |  | active: 44.7 µM
15 | Cc1cccc(C(=O)N[C@H](C(=O)Nc2ccc(S(=O)(=O)NC3=NCCCCC3)cc2)C(C)C)c1 |  | inconclusive: 3.55 µM [inhibitor, partial curve, poor fit]
16 | COc1cc(/C=C(\C#N)C(=O)Nc2ccc3c(c2)OCCO3)ccc1O |  | inconclusive: 56.2 µM [inhibitor, single point]
17 | CC(=O)C1=C(C)OC(N)=C(C#N)C1c1ccco1 (stereo not drawn) |  | inconclusive: 2.51 µM [inhibitor, partial curve, poor fit]
18 | COc1ccccc1C(=O)Nc1cc2c(cc1N1CCCCC1)n(C)c(=O)n2C | inactive: -32.1% | 
